From PMC8591507, “Progesterone receptor membrane component 1 (PGRMC1) binds and stabilizes cytochromes P450 through a heme-independent mechanism” (The Journal of Biological Chemistry, 2021) come the findings set out here.

By UniProt entry, the sequences of proteins in these tests, tags left out. Where a name states a change or a piece, a line headed by the entry shows the natural chain unless it says otherwise.
UniProt O55022: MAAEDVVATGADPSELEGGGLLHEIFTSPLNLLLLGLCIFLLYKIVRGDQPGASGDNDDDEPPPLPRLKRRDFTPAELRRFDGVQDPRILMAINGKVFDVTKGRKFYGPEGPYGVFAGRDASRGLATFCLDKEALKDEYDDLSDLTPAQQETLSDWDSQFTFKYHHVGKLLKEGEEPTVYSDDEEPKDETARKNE
UniProt O00264: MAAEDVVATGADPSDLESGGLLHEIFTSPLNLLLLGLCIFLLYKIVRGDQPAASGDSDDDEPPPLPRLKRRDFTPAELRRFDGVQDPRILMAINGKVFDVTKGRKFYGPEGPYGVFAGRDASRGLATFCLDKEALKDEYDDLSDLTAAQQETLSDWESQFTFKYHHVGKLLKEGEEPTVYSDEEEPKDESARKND
UniProt Q05421: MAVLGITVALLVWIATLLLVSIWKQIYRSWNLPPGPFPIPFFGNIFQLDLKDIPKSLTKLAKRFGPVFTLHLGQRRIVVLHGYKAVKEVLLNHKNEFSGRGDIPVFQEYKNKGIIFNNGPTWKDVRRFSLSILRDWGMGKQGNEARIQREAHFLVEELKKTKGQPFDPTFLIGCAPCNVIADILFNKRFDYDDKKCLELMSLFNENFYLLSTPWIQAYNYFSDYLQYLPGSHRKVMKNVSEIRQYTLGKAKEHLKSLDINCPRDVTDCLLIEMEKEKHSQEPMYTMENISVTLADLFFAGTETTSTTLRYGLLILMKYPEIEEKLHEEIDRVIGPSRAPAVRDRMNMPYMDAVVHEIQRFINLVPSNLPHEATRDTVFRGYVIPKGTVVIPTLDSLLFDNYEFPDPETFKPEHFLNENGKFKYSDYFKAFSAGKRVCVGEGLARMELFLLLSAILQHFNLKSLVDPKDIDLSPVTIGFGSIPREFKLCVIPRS

These are yes or no findings as the source states them, for the method shown. Binding seen in cells or lysates may run through a third protein. Some binding calls cover weakened binding; strength is not graded here. For some assays here: Sequences can lack the tags named with a protein.

Assay [1] concerns the target Y113F Flag-Pgrmc1 (murine) (mouse) (UniProt O55022). Nature of the assay: co-IP; Flag-M2 agarose on DDM-solubilized liver membrane fractions of Pgrmc1 KO mice infected with AAV8 GFP, Flag-Pgrmc1 or Y113F Flag-Pgrmc1; 1 h at 4 °C; input (1x) and bound (20x) fractions western blotted. (Immunoblotting shows a protein as a band on a membrane.)
Assay [2] addresses Flag-Pgrmc1 (murine progesterone receptor membrane component 1) (mouse) (UniProt O55022). The description is as above.
In assay [3] the target is Y113F Flag-PGRMC1 (human) (human) (UniProt O00264). Kind of assay: co-IP; Flag-M2 agarose on lysates (1X TAP lysis buffer with DDM) of PGRMC1 KO SV589 cells cotransfected with Flag-PGRMC1 variants and CYP1A2-1XMyc; 1 h at 4 °C; western blot.
Assay [4] concerns the target Flag-PGRMC1 (human progesterone receptor membrane component 1) (human) (UniProt O00264). The description is as above.
Assay [5] concerns the target Y113F, K163A, Y164F (3X MUT) Flag-PGRMC1 (human) (human) (UniProt O00264). The description is as above.

Regarding “Cyp2e1 (from UniProt Q05421 1-493) (enzyme)”, the binding result in assay [1] and in assay [2] was “binds” in each case.

B1: Cyp1a2 (enzyme, UniProt P00186 1-513)
chain: MAFSQYISLAPELLLATAIFCLVFWMVRASRTQVPKGLKNPPGPWGLPFIGHMLTVGKNPHLSLTRLSQQYGDVLQIRIGSTPVVVLSGLNTIKQALVRQGDDFKGRPDLYSFTLITNGKSMTFNPDSGPVWAARRRLAQDALKSFSIASDPTSASSCYLEEHVSKEANHLVSKLQKAMAEVGHFEPVSQVVESVANVIGAMCFGKNFPRKSEEMLNIVNNSKDFVENVTSGNAVDFFPVLRYLPNPALKRFKTFNDNFVLFLQKTVQEHYQDFNKNSIQDITSALFKHSENYKDNGGLIPEEKIVNIVNDIFGAGFDTVTTAITWSILLLVTWPNVQRKIHEELDTVVGRDRQPRLSDRPQLPYLEAFILEIYRYTSFVPFTIPHSTTRDTSLNGFHIPKERCIYINQWQVNHDEKQWKDPFVFRPERFLTNNNSAIDKTQSEKVMLFGLGKRRCIGEIPAKWEVFLFLAILLQHLEFSVPPGVKVDLTPNYGLTMKPGTCEHVQAWPRFSK
Turning to B1, the binding result in assay [1] and in assay [2] was “binds” each time.

B2: CYP1A2-1XMyc (human cytochrome P450 1A2) (enzyme, UniProt P05177 1-516)
chain: MALSQSVPFSATELLLASAIFCLVFWVLKGLRPRVPKGLKSPPEPWGWPLLGHVLTLGKNPHLALSRMSQRYGDVLQIRIGSTPVLVLSRLDTIRQALVRQGDDFKGRPDLYTSTLITDGQSLTFSTDSGPVWAARRRLAQNALNTFSIASDPASSSSCYLEEHVSKEAKALISRLQELMAGPGHFDPYNQVVVSVANVIGAMCFGQHFPESSDEMLSLVKNTHEFVETASSGNPLDFFPILRYLPNPALQRFKAFNQRFLWFLQKTVQEHYQDFDKNSVRDITGALFKHSKKGPRASGNLIPQEKIVNLVNDIFGAGFDTVTTAISWSLMYLVTKPEIQRKIQKELDTVIGRERRPRLSDRPQLPYLEAFILETFRHSPFLPFTIPHSTTRDTTLNGFYIPKKCCVFVNQWQVNHDPELWEDPSEFRPERFLTADGTAINKPLSEKMMLFGMGKRRCIGEVLAKWEIFLFLAILLQQLEFSVPPGVKVDLTPIYGLTMKHARCEHVQARLRFSIN
As to B2, the binding entry in assay [3], in assay [4] and in assay [5] was “binds” in each case.

B3: ferrochelatase (Fech) (enzyme, UniProt P22315 54-422)
chain: TTKPQAQPERRKPKTGILMLNMGGPETLGEVQDFLQRLFLDRDLMTLPIQNKLAPFIAKRRTPKIQEQYRRIGGGSPIKMWTSKQGEGMVKLLDELSPATAPHKYYIGFRYVHPLTEEAIEEMERDGLERAIAFTQYPQYSCSTTGSSLNAIYRYYNEVGQKPTMKWSTIDRWPTHPLLIQCFADHILKELNHFPEEKRSEVVILFSAHSLPMSVVNRGDPYPQEVGATVHKVMEKLGYPNPYRLVWQSKVGPVPWLGPQTDEAIKGLCERGRKNILLVPIAFTSDHIETLYELDIEYSQVLAQKCGAENIRRAESLNGNPLFSKALADLVHSHIQSNKLCSTQLSLNCPLCVNPVCRKTKSFFTSQQL
For B3, the binding result in assay [1] is “no binding”; in assay [2], “binds”.

B4: Cyp51a (enzyme, UniProt Q8K0C4 1-503)
chain: MVLLGLLQSGGWVLGQAMEQVTGGNLLSTLLIACAFTLSLVYLFRLAVGHMVQLPAGAKSPPHIYSPIPFLGHAIAFGKSPIEFLENAYEKYGPVFSFTMVGKTFTYLLGSDAAALLFNSKNEDLNAEEVYGRLTTPVFGKGVAYDVPNAIFLEQKKIIKSGLNIAHFKQYVPIIEKEAKEYFQSWGESGERNVFEALSELIILTASHCLHGKEIRSQLNEKVAQLYADLDGGFTHAAWLLPAWLPLPSFRRRDRAHREIKNIFYKAIQKRRLSKEPAEDILQTLLDSTYKDGRPLTDEEISGMLIGLLLAGQHTSSTTSAWMGFFLAKDKPLQEKCYLEQKAVCGEDLPPLTYDQLKDLNLLDRCIKETLRLRPPIMTMMRMAKTPQTVAGYTIPPGHQVCVSPTVNQRLKDSWAERLDFNPDRYLQDNPASGEKFAYVPFGAGRHRCVGENFAYVQIKTIWSTMLRLYEFDLINGYFPTVNYTTMIHTPENPVIRYKRRSK
Regarding B4, the binding entry in assay [1] and in assay [2] was “binds” each time.
